Laboratory results taken from PubChem BioAssay AID1159614 (National Center for Advancing Translational Sciences (NCATS), 2016).
About 65 (0.1%) of roughly 45,000 compounds were called active. Calls come from the whole dose curve; as a rule, active = well fitted activation curve with a large enough effect; inconclusive = small, poorly fitted or top-dose-only effect; inactive = no such curve, though single readings can be large or run the other way. This is one part of the list.

Each molecule was assayed against Galactocerebrosidase (Homo sapiens) (UniProt P54803) (assay: A Novel Cell-Based Assay to Identify Small Molecules for B -Galactocerebrosidase). Conditions: 145M-Twi-hGALC-G270D cells (Twitcher mouse brain line with human GALC G270D), HMU-beta-Gal fluorescence, 48 h; series mostly up to 57.5 µM; activation: at the top concentration.
UniProt P54803, sequence (P54803 whole entry, looked up): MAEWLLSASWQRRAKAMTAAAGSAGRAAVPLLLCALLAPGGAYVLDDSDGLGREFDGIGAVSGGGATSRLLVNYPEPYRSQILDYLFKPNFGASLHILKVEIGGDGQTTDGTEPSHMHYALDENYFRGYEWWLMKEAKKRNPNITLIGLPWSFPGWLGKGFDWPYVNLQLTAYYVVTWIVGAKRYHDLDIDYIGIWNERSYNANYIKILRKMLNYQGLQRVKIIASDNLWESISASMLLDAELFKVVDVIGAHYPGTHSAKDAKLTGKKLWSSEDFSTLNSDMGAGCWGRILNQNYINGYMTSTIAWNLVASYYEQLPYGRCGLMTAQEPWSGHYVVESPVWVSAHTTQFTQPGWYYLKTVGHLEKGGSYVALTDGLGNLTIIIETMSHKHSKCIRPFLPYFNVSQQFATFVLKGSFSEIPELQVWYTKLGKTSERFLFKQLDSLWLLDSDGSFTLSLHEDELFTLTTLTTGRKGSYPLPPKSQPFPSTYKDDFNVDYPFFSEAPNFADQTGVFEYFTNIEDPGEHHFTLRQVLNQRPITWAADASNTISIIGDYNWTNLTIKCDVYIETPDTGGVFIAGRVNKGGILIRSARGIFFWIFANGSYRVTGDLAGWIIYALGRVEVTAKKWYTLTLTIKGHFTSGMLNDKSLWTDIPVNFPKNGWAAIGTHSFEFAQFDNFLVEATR
How it was run: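 Brain-derived Twitcher mouse 145M-Twi cells stably expressing human GALC-G270D or wild-type GALC, treated live, then residual GALC activity read by fluorescence of HMU-b-Gal substrate (0.1 mM final) in citrate-phosphate buffer pH 5.2 with sodium taurocholate. Signal increase indicates enhancement.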
Note: 0% is about no effect; nearly all actives have a fitted effect of over 65% in size.

activation, inactive:
COC(=O)c1ccccc1NC(=O)c1ccc2c(c1)CCN2S(=O)(=O)c1ccc(Cl)cc1 -15.9%
Cc1cc(C)c(S(=O)(=O)NCC2CCC(C(=O)NCCc3ccccc3)CC2)c(C)c1 (stereo unspecified) -17.2%
O=c1n(Cc2ccccc2)nc2n1-c1cc(Cl)ccc1OC2 0.146%
Cc1c2cnn(-c3ccccc3)c(=O)c2c(C)n1CCCC(=O)Nc1cccc(F)c1 -13.4%
Cc1c(Cl)cccc1NC(=O)CSc1nc(=O)[nH]c2c1CCC2 -13.8%
O=S(=O)(c1cccc(Cl)c1)n1c(/C=C/c2ccccc2Cl)nc2ccccc21 -14.6%
CCN(CC)c1ccc(NC(=O)Cn2nc3c(cc2=O)CCCC3)c(C)c1 -1.81%
CCc1c(C)sc(NC(=O)c2cc3nc(-c4ccc(OC)cc4)cc(C(F)(F)F)n3n2)c1C(=O)OC -3.94%
COc1cccc(-n2c(SCC(=O)Nc3ccc4c(c3)OCO4)nc3c([nH]c4ccccc43)c2=O)c1 -12.7%
COc1cc(OC)cc(C(=O)N2CCN(C(=O)COc3ccc(C)cc3)CC2)c1 -15%
COc1ccc(-n2nc(C(=O)Nc3cc(C)c(Cl)cc3OC)c3c4ccccc4n(C)c3c2=O)cc1 -10.7%
Cc1ccccc1NC(=O)CSc1nc(-c2cccs2)nc2cc(=O)[nH]n12 -21.2%
COC1=CC(=O)C[C@@H](C)[C@]12Oc1c(Cl)c(OC)cc(OC)c1C2=O -16%
CC(NS(=O)(=O)c1ccc2c(c1)CCN2C(=O)CCCC(=O)O)c1ccccc1 (stereo unspecified) -10.5%
N#Cc1nc(/C=C/c2ccc(F)cc2)oc1N1CCCCCC1 0.221%
Cc1ccccc1NC(=O)c1sc2nc3n(c(=O)c2c1C)N=C(c1ccccc1)CS3 -1.44%
CN(C)c1ccc(NC(=O)CC(NCc2cccnc2)C(=O)O)cc1 (stereo unspecified) -8.08%
COc1ccc(OC)c(N(C)S(=O)(=O)c2ccc3c(c2)NC(=O)CC(=O)N3)c1 -10.3%
COc1ccc(C)cc1NC1(c2ccccc2)C(=O)c2ccccc2C1=O -13.3%
COc1ccc2nc(N3CCN(C(=O)CS(=O)(=O)c4ccc(C)cc4)CC3)sc2c1 -15.2%
Cc1ccc(-c2cnc(C3CC3)o2)cc1S(=O)(=O)Nc1ccc(F)cc1Cl -9.39%
CCOc1ccc(NC(=O)c2cnn3c2NC(C)=C(C(=O)Nc2ccc(Cl)cc2)C3c2ccc(OC)c(OC)c2)cc1 (stereo unspecified) -6.37%
COc1ccc(-n2ccn3c(CC(C)(C)CC(=O)O)nnc3c2=O)cc1 -10.7%
CCC(Sc1nc2nccnc2c(=O)n1Cc1ccc(Cl)cc1)C(=O)NC1CCCCC1 (stereo unspecified) -3.05%
COc1cccc(CNc2sc3c(c2C(=O)Nc2ccc(OC)cc2OC)CCC3)c1 -15.1%
Cc1ccc(NC(=O)CCCn2c(=O)c3cccn3c3cccnc32)c(C)c1 -6.87%
O=c1c(-c2cc(-c3ccccc3)nc3c2COc2ccc(Cl)cc2-3)coc2ccccc12 -3.25%
CC(=O)c1ccc(NC(=O)CSc2nccn2C2CCCC2)cc1 -7.36%
Cc1cccc(N2CCN(c3ccc4cc(S(=O)(=O)N5CCC(C)CC5)ccc4n3)CC2C)c1 (stereo unspecified) -11.2%
CC(C)CNC(=O)C(=O)Nc1c2c(nn1-c1ccc(Cl)cc1)CSC2 -0.892%
CC1CCN(S(=O)(=O)c2ccc3nc(Nc4cccc(F)c4)ccc3c2)CC1 -6.22%
Cc1nn(-c2cccc(Cl)c2)c2nc(-c3cccnc3)cc(C(F)(F)F)c12 -9.66%
COc1ccc(S(=O)(=O)NC(C)(C)CO)cc1-c1nnc2c3ccccc3c(C)nn12 -2.39%
O=c1c(N2CCN(c3ccc(F)cc3)CC2)csc2ccc(F)cc12 -10.6%
COc1ccc(CNC(=O)c2cc3cccc4c3n2CC(C)S4)cc1 (stereo unspecified) -15%
CCOc1ccc(NC(=O)CSc2nc3ccccc3nc2N2CCOCC2)cc1 -8.2%
CCCn1c(=O)c2sccc2n2c(CCCC(=O)N3CCN(c4ccc(OC)cc4)CC3)nnc12 -0.992%
CC(C)CC(=O)Nc1cccc(-c2cn3cccnc3n2)c1 -11.3%
COc1ccc(-c2cc(C(F)(F)F)nc(SCCC(=O)Nc3ccc(F)cc3F)n2)cc1 -2.06%
CCOCCCNC(=O)CN1C(=O)COc2ccc(S(=O)(=O)N3CCOCC3)cc21 -9.6%
O=C(CSc1ccc2nc(-c3ccccc3)cn2n1)Nc1ccccc1 -8.15%
O=C(Nc1ccc(F)cc1F)c1ccc(-n2cnc3cccnc32)cc1 -17.7%
CC(=O)c1ccc(NC(=O)CSc2nnc3c(n2)[nH]c2ccccc23)cc1 -31.2%
COc1ccc(CNC(=O)c2cc(-c3ccc(OC)c(OC)c3)nc3n[nH]c(-c4ccc(C)cc4)c23)cc1 -1.46%
O=C(CCC1N=C2c3ccccc3N=C(SCc3ccc(F)cc3)N2C1=O)N1CCN(c2ccccc2)CC1 (stereo unspecified) -20.3%
Clc1ccc(-c2nc3ncccn3c2Nc2ccc3c(c2)OCCO3)cc1 -13%
CCOC(=O)c1ccc(N2C(=O)c3n[nH]c(-c4cccs4)c3C2c2cccc(O)c2)cc1 (stereo unspecified) -10.8%
COc1ccc(N2CCN(C(=O)CCCCn3c(=O)[nH]c4ccsc4c3=O)CC2)cc1 -1.73%
N#Cc1c(-n2ncnc2-c2ccccc2Cl)sc2c1CCCCC2 -17.8%
COc1ccc(N(C)C(=O)c2oc(=O)c3ccccc3c2-c2ccc(C)cc2)c(OC)c1 -12.4%
CCOC(=O)c1ccc(O)cc1 -5.25%
Cc1cccc(Nc2cc(C)nc3nc(-c4ccccc4)nn23)c1 12.1%
CC1=C(C(=O)Nc2cccc(F)c2)C2(CCCCC2)OC1=O -9.24%
COC(=O)c1c(SCC(=O)Nc2ccccc2C(F)(F)F)[nH]c2ccc(Cl)cc2c1=O -2.33%
CC(C)c1ccc(CNC(=O)c2ccc(N3CCCC3)c(NC(=O)NCc3ccc(F)cc3)c2)cc1 -8.43%
CCOc1ccc(/C=C(\C#N)C(=O)Nc2sc3c(c2C(=O)OC)CCC3)cc1OC -10.8%
CCOC(=O)C1CCN(C(c2ccc(C)cc2)c2sc3nc(-c4ccco4)nn3c2O)CC1 (stereo unspecified) 2.82%
Cc1ccc(Cl)cc1NC(=O)C(NS(=O)(=O)c1ccc2c(c1)CCC(=O)N2)c1ccccc1 (stereo unspecified) -9.25%
Cc1ccc2c(c1)c1c(c(=O)n(-c3ccccc3C)c(=O)n1Cc1cccc(F)c1)n2C -1.78%
COc1cccc(CNC(=O)CCn2c(=O)c3cccn3c3cccnc32)c1 -9.84%
Cc1ccccc1C(=O)NC(=O)Nc1ccc(-n2nc(C(F)(F)F)cc2C(F)(F)F)cc1 -5.37%
